We go through 21 variants from the RNAGym collection of RNA variant scans (doi:10.7554/elife.90254).

The source gives no read counts; variants with many changes may rest on few reads.

The labels stand for the following.
B1: OR4K15 (parent)
chain: GUUAACGGUCAUAGGCCAUGGAAACUAGGAGCACCAUUUCGCUGCCAGUGAAGAAAUGAACAAAGAAAAUCUGGGCCAGGCAGGCAUCAAAAGAAAUAGUCUUGCGCUCAACCAGAAAGUCUGUAAUCAUUUUAAGGGUA

In the data set the parent is B1. Briefly: self-cleavage, relative activity (ratio to wild type); higher = more cleavage; in vitro, sequencing; the parent is a self-cleaving ribozyme.
Take GUUAACGGACAUAGGCCAUGGAAACUAGGAGCACCGUUUCGCUGCCAGUGAAGAAAUGAACAAAGAAAAUCUGGGCCAGGCAGGCAUCAAAAGAAAUAGUCUUGCGCUCAACCAGAGAGUCUGUAAUCAUUUUAAGGGUA [U9A A36G A117G]: the self-cleavage came to 1.02.
Next, GUUAACGGACAUAGGCCAUGGAAGCUAGGAGCACCAUUUCGCUGCCAGUGAAGAAAUGAACAAAGAAGAUCUGGGCCAGGCAGGCAUCAAAAGAAAUAGUCUUGCGCUCAACCAGGAAGUCUGUAACCAUUUUAAGGGUA [U9A A24G A68G A116G U127C]: 0.34; GUUAACGCCCAUAGGCCAUGGAAACUAGGAGCGCCAUUUCGCUGCCAGUGAAGAAAUGAACAAAGAAAAUCUGGGCCAGGCAGGCAUCAAAAGAAAUAGUCUUGCGCUCAACCAGAAAGUCUGUAAUCAUUUUAAGGGUC [G8C U9C A33G A140C]: 1.53.
For the variant GUUAACGGACAUAGGCCAUGGAGACUAGGAGCACCAUUUCGCUGCCAGUGAAGAAAUGAUCAAAGAAAAUCUGGGCCAGGCAGGCAUCAAAAGAAAUAGUCUUACGCUCAACCAGAAAGUCUGUAAUCAUUUUAAGGGUA [U9A A23G A60U G104A], the self-cleavage was 0.09.
The same measure for GUUAACGUUCAUAGGCCAUGGAAACUAGGAGCACCAUUUCGCUGCCAGUGAAGAAAUGAGCAAAGAAAAUCUGGGCCAGGCAGGCAUCAAAAGAAAUAGUCUUGCGCUCAACCAGAAAGUCUGUAGUCAUUUUAGGGGUA [G8U A60G A126G A135G]: 0.85; for GUUAACGGACAUAGGCCAUGGAAACUAGGGGCACCAUUUCUCUGCCAGUGAAGAAAUGAACAAAGAAAAUCUGGGCCAGGCAGGCAUCAAAAGAAAUAGUCUUGCGCUCAACCAGAAAGUCUGUAAUCAUUUUAAGGGUA [U9A A30G G41U]: 0.54.
With GUUAACGGACAUAGGCCAUGGGAACUAGGAGCACCAUUUCGCUGCCAGUGAAGAAAUGAACAAAGAAAAUCUGGGCCAGGCUGGCAUCAAAAGAAAUAGUCUUGCGCUCAACCAGAAAGUCUGUAAUCAUUUUAAGGGUA [U9A A22G A82U], the self-cleavage came out at 0.25.
Next, GUUAACGGACAUAGGCCAUGGAAACUGGGAGCACCAUUUCGCUGCCAGUGAAGAAAUGAACAAAGAAAAUCUGGGCCAGGCAGGCAUCAAAAGAAAUAGUCUUGCGCUCAACCAGAAGGUCUGUAAUCAUUUUAAGGGUA [U9A A27G A118G]: 1.23; GUUAACGGACAUAGGCCAUGGAAACUAGGAGCACCAUUUCGCUGCCGGUGAAGAAAUGAACUAAGAAAAUCUGGGUCAGGCAGGCAUCGAAAGAAAUAGUCUUGCGCUCAGCCAGAAAGUCUGUAAUCAUUUUAAGGGUA [U9A A47G A62U C76U A89G A111G]: 0.03.
For the variant GUUAACGGACAUAGGCCAUGGAAACUAGGGGCACCAUUUCGCUGCCAGUGAAGAAAUGAACAAAGAAAAUCUGGGCCAGGCAGGCAUCAAAAGAAAUAGUCUUGCGCUCAACCAGAAAGUCUGUAAGCAUUUUAAGGGUA [U9A A30G U127G], the self-cleavage worked out at 2.18.
Regarding GUUAACGUUCAUAGGCCAUGGAAACUAGGAGCACCAUUUCGCUGCCAGUGAAGAAAUGAACAAAGAAAAUCCGGGCCAGGCAGGCAUCAAAAGAAAUAGUCUUGCGCUCAACCAGAAAGUCUGUAAUCAUUCUAAGGGUA [G8U U72C U132C], the self-cleavage was 0.25.
Next, GUUAACGUUCAUAGGCCAUGGAAACUAGGAGCACCAUUUCGCUGCCAGUGAAGAAAUGAACAGAGAAAACCUGGGCCAGGCAGGCAUCAAAAGAAAUAGUCUUGCGCUCAACCAGAAAGUCUGUAAUCAUUUUAAGGGUA [G8U A63G U70C]: 1.9; GUUAACGGACAUAGGCCAUGGAAACUAGGGGCACCAUUUCGCCGCCAGUGAAGAAAUGAACAGAGAAAAUCUGGGCCAGGCAGGCAUCAAAAGAAAUAGUCUUGCGCUCAACCAGAAAGUCUGCAAUCAUUUUAAGGGUA [U9A A30G U43C A63G U124C]: 1.12.
The same measure for GUUAACGGACAUAGGCCAUGGAAACUCGGAGCACCAUUUCGCUGCCAGUGAUGAAAUGAACAAAGAAAAUCUGGGCCAGGCAGGCACCAAAAGAAAUAGUCUUGCGCUCAACCAGAGAGUCUGUAAUCAUUUUAAGGGUA [U9A A27C A52U U87C A117G]: 1.5; for GUUAACGGACAUAGGCCAUGGGAACUAGGAGCACCAUUUCGCUGUCAGUGAAGAAAUGAACAAAGAAAAUCUGGGCCAGGCAGGCAUCAAAAGAAAUAGUCUUGCGCUCAACCAGAAAGUCUGUAAUCAUUUUAAGGGUA [U9A A22G C45U]: 0.75.
Turning to GUUAACGGACAUAGGCCAUGGAAACUAGGAGCACCAUUUCGCUGCCAGUGAAGGAAUGAACAAGGAAAAUCUGGGCCAGGCAGGUAUCAAAAGAAAUAGUCUUGCGCUCAACCGGAAAGUCUGUAAUCAUUUUAAGGGUA [U9A A54G A64G C85U A114G], the self-cleavage was determined as 0.51.
Take GUUAACGGACAUAGGCCAUGGAGACUAGGAGCACCAUUUCGCUGCCAGUGAAGAAAUGAACAAAGAAAACCUGGGCCAGGCAGGCAUCAAAGGAAAUAGUCUUGCGCUCAACCAGAAAGUCUGUAAUCAUUUUAAGGGUA [U9A A23G U70C A92G]: the self-cleavage was determined as 0.4.
The same measure for GUUAACGUUCAUAGGCCAUGGAAACUAGGAGCACCAUUUCGCUGCCAGUGAAGAAGUGAACAAAGAAAAUCUGGGCCAGGCAGGCAUCAAAAGAGAUAGUCUUGCGCUCAACCAGAAAGUCUGUAAUCAUUUUAAGGGUA [G8U A56G A95G]: 2.64; for GUUAACGGACAUAGGCCAUGGAAACUAGGAGCACCUUUUCGCUGCCAGUGAAGAAAUGAACAAAGAAAAUCUGGGCCAGGCAGGCAUCAAAAGAAAUAGUCUUGCGCUCAACCAGAAAGUCUGUAAUCAUUUCAAGGGUA [U9A A36U U133C]: 1.14.
The same measure for GUUAACGGACAUAGGCCUUGGGAACUAGGAGCACCAUUUCGCUGCCAGUGAAGAAAUGAACAAAGAAUAUCUGGGCCAGGCAGGCAUCAAAAGAAAUAGUCUUGCGCUCAACCAGAAAGUCUGUAAUCAUUUUAAGGGUA [U9A A18U A22G A68U]: 1.49; for GUUAACGGACAUAGGCCAUGGAAACUAGGAGCACCAUUUCGCUGCCAGUGAGGAAGUGAACAAAGAAAAUCUGGGCCAGGCAGGCAUCAAAAGAAAUAGUCUUGCGCUCAACCAGAAAGUCUGUAAUCAUUUUAAGGGCA [U9A A52G A56G U139C]: 0.94.
